We go through 40 sequences from the supplement of paper PMC10338343.

± gives the standard deviation. This is a selection; strong and weak results do not stand in their true shares.

The experiment has as its system MIWI (PIWIL1) piRISC loaded with piRNA #1 (30 nt). The experiment can be described thus: pre-steady-state target cleavage rate (min^-1); MIWI and MILI are mouse PIWI proteins and EfPiwi is from a freshwater sponge; tags in brackets are library labels; higher = faster piRNA-guided slicing of the target. Particulars: guide: piRNA #1 5'p-UGAGGUAGUAGGUUGUAUAGUAUCCAGAGG; auxiliary factor: 500 nM mouse GTSF1. The procedure, abridged:
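The method was Cleave-'n-Seq, in which uncleaved targets from a transcribed, DNA-blocked target RNA library were sequenced after exposure to active affinity-purified piRISC carrying one synthetic guide, with or without GTSF1 partner protein. Reactions contained 0.1 nM library, 1 nM piRISC and, where present, 500 nM GTSF1 in HEPES–potassium acetate buffer at 33 °C for 0–8 or 0–960 min. Reads were normalised to depth and to weakly complementary targets, three trials were pooled, and k3 was capped at 0.0001 min^-1. The pre-steady-state cleavage rate came from a burst-and-steady-state fit.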
GGAGUGUAUACUAUACAACCUACUACCUCA: the “pre-steady-state target cleavage rate” value came to 1.54 ± 0.092.

As for GGAGAGGCUACUAUACAACCUACUACCUCA, the “pre-steady-state target cleavage rate” value stood at 1.47 ± 0.069.

Regarding GGUCUGGAUACUAAACAACCUAGUACCUCA, the “pre-steady-state target cleavage rate” value was determined as 0.409 ± 0.058.

As for GGUCUGGAUACUAUAGUUCCUACUACCUCA, the “pre-steady-state target cleavage rate” value is 0.167 ± 0.029.

For GGUCUCGAUACUAUACAACCUACUACCUGA, the “pre-steady-state target cleavage rate” value worked out at 0.78 ± 0.12.

As to “GGAGACCUUACUAUACAACCUACUACCUCU [g2:g22:cont:t1U]”, the “pre-steady-state target cleavage rate” value amounted to 1.45 ± 0.084.

On to GGAGACCAUACUAUACAACGUACAACCUCA, for which the “pre-steady-state target cleavage rate” value came to 0.161 ± 0.03.

Turning to CCUCUGGAUACUGUACAACCUACUACCUCA, the “pre-steady-state target cleavage rate” value turned out to be 0.782 ± 0.062.

As for GGACUGGAUACAAUACAACCUAGUACCUCA, the “pre-steady-state target cleavage rate” value worked out at 0.518 ± 0.059.

On to GGAGACCUAUCUAUACAAGCUACUACCUGA, for which the “pre-steady-state target cleavage rate” value worked out at 0.27 ± 0.027.

Turning to CCUCUGGAUACUUUACAACCAACUACCUCA, the “pre-steady-state target cleavage rate” value was found to be 0.134 ± 0.017.

Regarding GCUCUGGAUACUAUACGACCUACUACCUCA, the “pre-steady-state target cleavage rate” value worked out at 1.48 ± 0.083.

With GGAGACCUAUGUAUACAACCUACUACGUGA, the “pre-steady-state target cleavage rate” value stood at 0.0375 ± 0.0082.

In the case of GCACUGGAAACUAUACAACCUACUACCUCA, the “pre-steady-state target cleavage rate” value is 1.82 ± 0.089.

In the case of GGAGUGGAUACUAUACAACCUACUUGGUCA, the “pre-steady-state target cleavage rate” value was under 0.0001.

With GGAGACCAUACUAUACAACCUAGCUACCUCA, the “pre-steady-state target cleavage rate” value was found to be 0.174 ± 0.016.

For the sequence GGAGACCAUACUAUUCAACCUACUACGUCA, the “pre-steady-state target cleavage rate” value stood at 0.69 ± 0.044.

On to GGUCUGGAUACUAUACAACCUACCACCUCA, for which the “pre-steady-state target cleavage rate” value worked out at 0.554 ± 0.06.

GCUUUGGAUACUAUACAACCUACUACCUCA: the “pre-steady-state target cleavage rate” value turned out to be 1.91 ± 0.11.

Regarding CCUCUGGAUACUUAACAACCUACUACCUCA, the “pre-steady-state target cleavage rate” value worked out at 1.38 ± 0.1.

In the case of GGAGACCUAUCUAUACAACCUACAACGUCA, the “pre-steady-state target cleavage rate” value was found to be 0.111 ± 0.021.

Turning to GCUGUGGAUACUAUACAACCUACUACCUCA, the “pre-steady-state target cleavage rate” value stood at 1.9 ± 0.11.

For the sequence GGUCUGGAAACUAUACAUCCUACUACCUCA, the “pre-steady-state target cleavage rate” value amounted to 1.57 ± 0.087.

GGAGACCAAACUAUACAACCUACUUCCUCA: the “pre-steady-state target cleavage rate” value is 0.256 ± 0.05.

For CCUCUGGAUACUAUACAACCUACACCUCA, the “pre-steady-state target cleavage rate” value worked out at 0.0138 ± 0.004.

For the sequence GGAGACCUAUGAUAUAAACCUACUACCUCA, the “pre-steady-state target cleavage rate” value is under 0.0001.

GCUCUGCAUAGUAUACAACCUACUACCUCA: the “pre-steady-state target cleavage rate” value was determined as 1.77 ± 0.11.

For GGAGACCAUACAUAACAACCUACUACCUCA, the “pre-steady-state target cleavage rate” value worked out at 0.0185 ± 0.0082.

As to GGAGUGGAUACUAUACCACCUACUACCUCA, the “pre-steady-state target cleavage rate” value was 1.3 ± 0.075.

With GGUCUGGAUACUAUACAUCCUACUACCACA, the “pre-steady-state target cleavage rate” value was 1.36 ± 0.081.

Turning to CCUCUGGAUACAUAUACAACCUACUACCUCA, the “pre-steady-state target cleavage rate” value is 1.73 ± 0.12.

On to GGUCUGGAUAGUAUACAUCCUACUACCUCA, for which the “pre-steady-state target cleavage rate” value was 0.741 ± 0.083.

Consider GGAGACCUAUGAUAUCAAACCUACUACCUCA, for which the “pre-steady-state target cleavage rate” value is under 0.0001.

In the case of GCUCUCGAUACUAUACAACGUACUACCUCA, the “pre-steady-state target cleavage rate” value was determined as 1.18 ± 0.067.

GGAGAGGAUACUAUACAACCUACAUACCUCA: the “pre-steady-state target cleavage rate” value was 0.914 ± 0.071.

As for GGAGACGAUACUAUACAACGUUCUACCUCA, the “pre-steady-state target cleavage rate” value was determined as 0.0938 ± 0.0099.

Consider GCACUGGAUACUAUUCAACCUACUACCUCA, for which the “pre-steady-state target cleavage rate” value came to 1.85 ± 0.11.

Regarding GGACUCGAUACUAUACAACCUAGUACCUCA, the “pre-steady-state target cleavage rate” value worked out at 0.493 ± 0.053.

As for GGAGACCUUACUUUACAACCUACUACCUGA, the “pre-steady-state target cleavage rate” value is 0.3 ± 0.043.

In the case of CCACUGGAUACUAUACAACCUACUUCCUCA, the “pre-steady-state target cleavage rate” value stood at 0.689 ± 0.047.
